# This is one part of the list.
# Test system: PF3D7_0420300 AP2 domain 1 (GST-tagged)
# Experiment: gcPBM binding intensity (ln(normalized median fluorescence intensity)); higher = stronger DNA binding
# Summary of the method: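 The highest Masliner-normalised natural-log median intensity across replicate spots of either probe orientation is reported as binding intensity. GST-tagged P. falciparum DNA-binding domains expressed in E. coli were applied for 1 h to an Agilent 4 × 180k array of primer-extended double-stranded 36-bp intergenic genomic probes plus negative controls, and bound protein was detected with Alexa488 anti-GST antibody and scanned at 488 nm.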
row,Sequence,gcPBM binding intensity (ln)
1,TTTATTTGTTCATGCGTGCACTTGATAACAATGTAC [GTGCAC_site9561],9.08
2,AAAAAAAATTCATATTGTACTTTTAAATTAAAGAAA [XGTACX_site4521],8.8
3,AGTGAATATCTAAAATGTACATAAATAAATAAATAA [XGTACX_site8293],9.19
4,CGTTATATCAAAGGAGTGCATTATGAATACGTTTTA [GTGCAC_site9837],9.14
5,AGATCTATTATTTTTTGTACTTATATATAAACTTAA [XGTACX_site1737],9.29
6,ATAGGCAAAAAGTGTACACATTCATTTATATAAATA [CACACA_site4480],9.24
7,AATGGTATAAACAATACACACATAATATAAATATTG [CACACA_site6878],9.58
8,TTATATATAAATGTGTGTACTTATAAAATAATCATT [XGTACX_site5370],9.35
9,TTCTATATATTTGGAAGTACATTATATTTATTTTTT [XGTACX_site3172],9.3
10,TAAAATTTTTGTTTTTGTACGAAACATCAATTTTAC [XGTACX_site4963],9
11,CATATATAAATATGTACACACATATGTATGATCTCA [CACACA_site3868],9.44
12,TTATTTATAAGTAATATTATATATTCTTTTAATACA [CACACA_negctrl_site471],8.9
13,ACAAAATTTTTAAGAACACACAAAAATGTACTATCG [CACACA_site2550],9.3
14,GAAAGGACAAGAATAGTGCACATGCAATGTTATTTT [GTGCAC_site9985],9.41
15,AATCATGCTCCGGAAAGTACATAAATAAATAAATAA [XGTACX_site1690],9.14
16,CACATACACATACAAACACACATTATGTATATATAT [CACACA_site1599],9.67
17,AAAAAAAAAAAACATACACACATACATACATATATA [CACACA_site8222],9.82
18,ATATATACAACTAAAGAACACACATCATTGTTCATT [CACACA_site9224],9.64
19,AAACAATTTTTTAAAAGTACTTGAAAATTGTGAAAT [XGTACX_site2461],9.17

row,Sequence,gcPBM binding intensity (ln)
1,AAAAAAATTACGCAAGTGCATATAATTTAACAAAAA,9.1
2,ATATATATATATCACGCACACACGAATTTTAAATAT [CACACA_site3131],9.65
3,AATGGTAATCCACATACACACACACCGACACATATA [CACACA_site8876],10.1
4,AACATTTATATAAAAGAACACACATATAAAATATTA [CACACA_site9199],9.55
5,ATCGCGAAGTAGCATTCACACACAGCAAAATATATA [CACACA_site9162],9.52
6,CATTTACCCTTATTAACACACAAAATAAAATACGCT [CACACA_site7249],9.45
7,AAATAACAAAAGAAGGTGCTCATAAAAATTCATACA [GTGCAC_site9864],9.37
8,AACAATAGTAAAAATACACACATTAAACTTCATTTC [CACACA_site2126],9.71
9,AAAAAAAAAAAAAAAAAAAAAAAAAAAAAAAAAAAA [CACACA_negctrl_site204],9.43
10,ATACAATGATATATACATATATATATATATATATAT [TGCATGCA_negctrl_site359],9.46
11,AAATTATAAAAAAAAAAAAAAAAAAAAAAAAAAAAA [XGTACX_negctrl_site501],8.54
12,TTTAAAATATTAAAATGTACATATATATATATATAT [XGTACX_site6784],8.96
13,ATCCGCTGCCTTTTGGTGCAGAACATAATCATGTAA,9.02
14,TATATATATATATATACACACATACATATATATATT [CACACA_site8185],9.29
15,ACATAAATATATTTTTCACACATCCTTAGTTATGAA [CACACA_site5179],9.23
16,AATGTATTTAAACTGACACACAAAAAAAATAAAATA [CACACA_site2138],9.53
17,ATATTGTAAGTAAACACACACACATCTATAGGTATA [CACACA_site6462],9.96
18,TGTATATTTGATTCATGTACATATTTTATTTTAACT [XGTACX_site5169],9.48
19,CAGATTTATTCAAACGCATGCTGTTTTAAAATAAAA [TGCATGCA_site874],8.66

row,Sequence,gcPBM binding intensity (ln)
1,CCTATATAATTATAATGTACTTGTAAAAAATATAAC [XGTACX_site2864],9.36
2,TAAGACTATTAAAAAATTGAGTACATGAACTGTTCA [GTGCAC_negctrl_site670],9.02
3,AAATATAAAAAATATACACACATATATAATATATAT [CACACA_site2963],9.55
4,CGTATAACATATGACACACACACATACATACACAAA [CACACA_site1803],9.98
5,GATTTATATAATTCAAGTACTAAAAATATTTTTAAT [XGTACX_site5285],9.01
6,AAAAAAAATATCTATGCATGTAATATTATGATATTG [TGCATGCA_site546],9.14
7,TAACATTAAAATAAAAGTACTTAATAATATTAAGTA [XGTACX_site5920],9.16
8,TTAATAATAAATGAAAGTACATATAAAAAAAAAAAA [XGTACX_site717],9.28
9,ATTATACATATGTATGCACACATACATACACATATA [CACACA_site9155],9.47
10,AATAGTAAAAGATATACACACACCAAAAAATAGAAT [CACACA_site2289],10.3
11,TAATTTAAGAAAAAATGTACACAAATATAATAATAG [XGTACX_site8317],9.37
12,ATATATATATGTTTATGTACTTATAATAATATAACT [XGTACX_site4828],9.26
13,ATACATATATGTGTGTGTACATAAATGTATATATTT [XGTACX_site6242],9.82
14,GCATGGAACCATATATGTACATATATAAATAAATAA [XGTACX_site4996],9.1
15,AACTTTATTCCTAATTGTACACATATATATATATAT [XGTACX_site6823],9.5
16,GTATCTTTCAAAATATGTACATATATATATGTGTGT [XGTACX_site3512],9.74
17,TGTAGCCTGGAGAAGAGTACATAGTATCTGGTAGCT [XGTACX_site4943],9.12
18,CGTATGTGCGGACATGCATGCAATATACAAGAAAAA [TGCATGCA_site145],9.08
19,GTATATTAATAAACATGTACACAATTTATTTATATT [XGTACX_site1012],9.35

# — the supplement of paper PMC11417369
